Results published in the supplement of paper PMC4604168 (melanoma cell lines).
The list shows a part of the results. Single values are uncertain, as repeats are few or missing.

Experiments:
Assay in all cases: cell count relative to DMSO control; melanoma cells; higher = more viable cells
Settings in all cases: library dose: low library concentration; 72 h
WM115 = test system: WM115
WM1716 = test system: WM1716
WM1745 = test system: WM1745
WM3526 = test system: WM3526
WM3619 = test system: WM3619
WM451Lu = test system: WM451Lu
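Also: cell number obtained by counting DAPI-stained nuclei in high-throughput microscope images with image analysis software, screen run in 1,536-well plates.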

| SMILES | cell count (WM115) [%] | cell count (WM1716) [%] | cell count (WM1745) [%] | cell count (WM3526) [%] | cell count (WM3619) [%] | cell count (WM451Lu) [%] |
| --- | --- | --- | --- | --- | --- | --- |
| CC(C)(C)c1cnc(CSc2cnc(NC(=O)C3CCNCC3)s2)o1 + Oc1cc(-c2nc(-c3ccccc3)[nH]c2-c2ccncc2)ccc1Cl [L779450] (first compound 0.01 µM, partner dose 0.2 µM) | 91.9 | 115 | 75.6 | 86.1 | 95.5 | 117 |
| CCCCCCCCc1ccc(CCC(N)(CO)CO)cc1 [fingolimod] + CN(C)S(=O)(=O)c1ccc2c(c1)/C(=C/c1cc3c([nH]1)CCCC3)C(=O)N2 [SU6656] (first compound 2 µM, partner dose 0.4 µM) | 71.8 | 76.6 | 51.9 | 74 | 34 | 87.9 |
| CC(C)(C)c1cnc(CSc2cnc(NC(=O)C3CCNCC3)s2)o1 + O=C(O)C(=O)Nc1sc2c(c1C(=O)O)CCNC2 [TCS401] (first compound 0.01 µM, partner dose 1.66667 µM) | 96.2 | 87.8 | 83.9 | 116 | 107 | 84.2 |
| CCCCCCCCc1ccc(CCC(N)(CO)CO)cc1 [fingolimod] + CN1CCN(c2ccc3nc(-c4c(N)c5c(F)cccc5[nH]c4=O)[nH]c3c2)CC1 [Dovitinib] (first compound 2 µM, partner dose 0.1 µM) | 108 | 99.1 | 79.8 | 97.6 | 92.2 | 99.6 |
| CCc1ccc(CCOc2ccc(CC3SC(=O)NC3=O)cc2)nc1 (configuration not stated) [pioglitazone] + COc1cc(N2CCC(N3CCN(C)CC3)CC2)ccc1Nc1ncc(Cl)c(Nc2ccccc2S(=O)(=O)C(C)C)n1 [NVP-TAE684] (first compound 2 µM, partner dose 0.08 µM) | 90.4 | 87.2 | 76.6 | 132 | 102 | 95 |
| COc1cc2c(Oc3ccc4[nH]c(C)cc4c3F)ncnc2cc1OCCCN1CCCC1 [cediranib] + Cn1cc(/C=C2\C(=O)Nc3cccnc32)c2ccccc21 [GW441756] (first compound 0.4 µM, partner dose 0.4 µM) | 95.6 | 103 | 85.8 | 89.9 | 135 | 118 |
| NC(=O)c1ccc(N(C(N)=O)c2c(F)cccc2F)nc1-c1ccc(F)cc1F + O=c1cc(-c2cccc3c2Sc2ccccc2S3)oc(N2CCOCC2)c1 [KU55933] (first compound 0.4 µM, partner dose 1 µM) | 87.8 | 109 | 113 | 76.5 | 104 | 99.4 |
| CCCCCCCCc1ccc(CCC(N)(CO)CO)cc1 [fingolimod] + OCCn1cc(-c2cnc3nnn(Cc4ccc5ncccc5c4)c3n2)cn1 [PF04217903] (first compound 2 µM, partner dose 1 µM) | 97.7 | 79.3 | 70.2 | 101 | 90.2 | 124 |
| CC(C)(C)c1cnc(CSc2cnc(NC(=O)C3CCNCC3)s2)o1 + O=C(O)c1ccc(-c2c[nH]c3ncc(-c4ccccc4)cc23)cc1C1CCCC1 [GSK650394] (first compound 0.01 µM, partner dose 0.16 µM) | 91.2 | 103 | 109 | 93.5 | 134 | 116 |
| Cc1ccc(NC(=O)c2cccc(N(C)C)c2)cc1NC(=O)c1ccc(O)cc1 + CO[C@@H]1[C@H](N(C)C(=O)c2ccccc2)C[C@H]2O[C@]1(C)n1c3ccccc3c3c4c(c5c6ccccc6n2c5c31)C(=O)NC4 [Midostaurin] (first compound 2 µM, partner dose 0.08 µM) | 80.6 | 70.6 | 87.1 | 109 | 70.6 | 89 |
| Cc1ccc(NC(=O)c2cccc(N(C)C)c2)cc1NC(=O)c1ccc(O)cc1 + COC(=O)c1sccc1S(=O)(=O)Nc1ccc(Nc2ccccc2)cc1OC [GSK0660] (first compound 2 µM, partner dose 1 µM) | 110 | 103 | 98.4 | 96.9 | 99.2 | 115 |
| NC(=O)c1ccc(N(C(N)=O)c2c(F)cccc2F)nc1-c1ccc(F)cc1F + Cn1cncc1[C@@](N)(c1ccc(Cl)cc1)c1ccc2c(c1)c(-c1cccc(Cl)c1)cc(=O)n2C [tipifarnib] (first compound 0.4 µM, partner dose 0.01 µM) | 76.7 | 83.5 | 90.5 | 85.7 | 93.6 | 91.9 |
| CCCCCCCCc1ccc(CCC(N)(CO)CO)cc1 [fingolimod] + NC1(c2ccc(-c3nc4ccn5c(=O)[nH]nc5c4cc3-c3ccccc3)cc2)CCC1 [MK2206] (first compound 2 µM, partner dose 0.4 µM) | 67 | 72.8 | 80.4 | 65.5 | 84.9 | 75.4 |
| COc1cc2c(Oc3ccc4[nH]c(C)cc4c3F)ncnc2cc1OCCCN1CCCC1 [cediranib] + Oc1nc(-c2ccc(C(F)(F)F)cc2)nc2c1CSCC2 [XAV939] (first compound 0.4 µM, partner dose 2 µM) | 112 | 74 | 80.3 | 105 | 110 | 114 |
| NC(=O)c1ccc(N(C(N)=O)c2c(F)cccc2F)nc1-c1ccc(F)cc1F + O=C(O)C(=O)Nc1sc2c(c1C(=O)O)CCNC2 [TCS401] (first compound 0.4 µM, partner dose 1.66667 µM) | 101 | 96.5 | 84.8 | 105 | 98.7 | 98 |
| Cc1ccc(NC(=O)c2cccc(N(C)C)c2)cc1NC(=O)c1ccc(O)cc1 + COc1ccc2c(c1)CCC1C2CCC2(C)C(NCCCCCCN3C(=O)C=CC3=O)CCC12 [U73122] (first compound 2 µM, partner dose 0.4 µM) | 106 | 92.3 | 89.8 | 68.7 | 95.2 | 111 |
| NC(=O)c1ccc(N(C(N)=O)c2c(F)cccc2F)nc1-c1ccc(F)cc1F + O=C1NC(=O)/C(=C/c2ccc(-c3ccc(F)cc3O)o2)S1 [AS252424] (first compound 0.4 µM, partner dose 1 µM) | 99 | 99.9 | 89.4 | 107 | 108 | 108 |
| CC(C)(C)c1cnc(CSc2cnc(NC(=O)C3CCNCC3)s2)o1 + O=C(Nc1cccc(Cl)c1)Nc1ncc(CCNc2ncnc3ccsc23)s1 [SNS314] (first compound 0.01 µM, partner dose 0.0008 µM) | 101 | 106 | 72.9 | 86.1 | 102 | 87.2 |
| CCc1ccc(CCOc2ccc(CC3SC(=O)NC3=O)cc2)nc1 (configuration not stated) [pioglitazone] + Cc1cc([N+](=O)[O-])ccc1NS(=O)(=O)c1cc(Cl)ccc1Cl [FH535] (first compound 2 µM, partner dose 1 µM) | 84.7 | 87.3 | 98.9 | 97.1 | 101 | 91.8 |
| CCCCCCCCc1ccc(CCC(N)(CO)CO)cc1 [fingolimod] + C[C@]1(c2nc3c(C(N)=O)cccc3[nH]2)CCCN1 [Veliparib] (first compound 2 µM, partner dose 1.4 µM) | 83.6 | 69.3 | 75.1 | 89.6 | 83.9 | 88.6 |
| Cc1ccc(NC(=O)c2cccc(N(C)C)c2)cc1NC(=O)c1ccc(O)cc1 + NC(=O)Nc1cc(-c2cccc(F)c2)sc1C(=O)N[C@H]1CCCNC1 [AZD7762] (first compound 2 µM, partner dose 0.02 µM) | 85.1 | 84.7 | 81.7 | 70.2 | 58.2 | 132 |
| Cc1ccc(NC(=O)c2cccc(N(C)C)c2)cc1NC(=O)c1ccc(O)cc1 + COc1cc(N2CCC(N3CCN(C)CC3)CC2)ccc1Nc1ncc(Cl)c(Nc2ccccc2S(=O)(=O)C(C)C)n1 [NVP-TAE684] (first compound 2 µM, partner dose 0.08 µM) | 98.6 | 104 | 88.4 | 116 | 93.2 | 83.3 |
| CCCCCCCCc1ccc(CCC(N)(CO)CO)cc1 [fingolimod] + COc1ccc(Cl)c(Nc2nc3ccccc3nc2NS(=O)(=O)c2cccc(NC(=O)C(C)(C)N)c2)c1 [XL147] (first compound 2 µM, partner dose 0.8 µM) | 99.4 | 71.9 | 78.4 | 87.4 | 118 | 102 |
| CCCCCCCCc1ccc(CCC(N)(CO)CO)cc1 [fingolimod] + O=C(O)C(=O)Nc1sc2c(c1C(=O)O)CCNC2 [TCS401] (first compound 2 µM, partner dose 1.66667 µM) | 90.6 | 72.9 | 81.1 | 79 | 89.5 | 104 |
| COc1cc2c(Oc3ccc4[nH]c(C)cc4c3F)ncnc2cc1OCCCN1CCCC1 [cediranib] + N#Cc1c(O)c2c(-c3ccc(-c4ccccc4O)cc3)csc2[nH]c1=O [A769662] (first compound 0.4 µM, partner dose 2 µM) | 94.9 | 115 | 104 | 95.4 | 112 | 97.2 |
| Cc1ccc(NC(=O)c2cccc(N(C)C)c2)cc1NC(=O)c1ccc(O)cc1 + Cn1cncc1[C@@](N)(c1ccc(Cl)cc1)c1ccc2c(c1)c(-c1cccc(Cl)c1)cc(=O)n2C [tipifarnib] (first compound 2 µM, partner dose 0.01 µM) | 92.1 | 93.5 | 85.5 | 84.1 | 89.2 | 92.7 |
| NC(=O)c1ccc(N(C(N)=O)c2c(F)cccc2F)nc1-c1ccc(F)cc1F + CN(C)S(=O)(=O)c1ccc2c(c1)/C(=C/c1cc3c([nH]1)CCCC3)C(=O)N2 [SU6656] (first compound 0.4 µM, partner dose 0.4 µM) | 73.6 | 116 | 95.2 | 91.3 | 104 | 89.3 |
